54 molecules from paper PMC4336329 (PLoS ONE, 2015) can be followed below.

The campaign covered roughly 310,000 compounds. About 14,000 (4.5%) showed an effect of 50% or more. Effects have a minus sign here. The list shows a part of the results.
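Also: peak tail current of the secondary pulse compared with the same well before compound.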

The target in this assay is human ether-à-go-go-related gene (hERG) potassium channel (human, UniProt Q12809). Briefly: primary screen, population patch clamp on CHO cells stably expressing hERG.
human ether-à-go-go-related gene (hERG) potassium channel, sequence (Q12809 whole entry, looked up): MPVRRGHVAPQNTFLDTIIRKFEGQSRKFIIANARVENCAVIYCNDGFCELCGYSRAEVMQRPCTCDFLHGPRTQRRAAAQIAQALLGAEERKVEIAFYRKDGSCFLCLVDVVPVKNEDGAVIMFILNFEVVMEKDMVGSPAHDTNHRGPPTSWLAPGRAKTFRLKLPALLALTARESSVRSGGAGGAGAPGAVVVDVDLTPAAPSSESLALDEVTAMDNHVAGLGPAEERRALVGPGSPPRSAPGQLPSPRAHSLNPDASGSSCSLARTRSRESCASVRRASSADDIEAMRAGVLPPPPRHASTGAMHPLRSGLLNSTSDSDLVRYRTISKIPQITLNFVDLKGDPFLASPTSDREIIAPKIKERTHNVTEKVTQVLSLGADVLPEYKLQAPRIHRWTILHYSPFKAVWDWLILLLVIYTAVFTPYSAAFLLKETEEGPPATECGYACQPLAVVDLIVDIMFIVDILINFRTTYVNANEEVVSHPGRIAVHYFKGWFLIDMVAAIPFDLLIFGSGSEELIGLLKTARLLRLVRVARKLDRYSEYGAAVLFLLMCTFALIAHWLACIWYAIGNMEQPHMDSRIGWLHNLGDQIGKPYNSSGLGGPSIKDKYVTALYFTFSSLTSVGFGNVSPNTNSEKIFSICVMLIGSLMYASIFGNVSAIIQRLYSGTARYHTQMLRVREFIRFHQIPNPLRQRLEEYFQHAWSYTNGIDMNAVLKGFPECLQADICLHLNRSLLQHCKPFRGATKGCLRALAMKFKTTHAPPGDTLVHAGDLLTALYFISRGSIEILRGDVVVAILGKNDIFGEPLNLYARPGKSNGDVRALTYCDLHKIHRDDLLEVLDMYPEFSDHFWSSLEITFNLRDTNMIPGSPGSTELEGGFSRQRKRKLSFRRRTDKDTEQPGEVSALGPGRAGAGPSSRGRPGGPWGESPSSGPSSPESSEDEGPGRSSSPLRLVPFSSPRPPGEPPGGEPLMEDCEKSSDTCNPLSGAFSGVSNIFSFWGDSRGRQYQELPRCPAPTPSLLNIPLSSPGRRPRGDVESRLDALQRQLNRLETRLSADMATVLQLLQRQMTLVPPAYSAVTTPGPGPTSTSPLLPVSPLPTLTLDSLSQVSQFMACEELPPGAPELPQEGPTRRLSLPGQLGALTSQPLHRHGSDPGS
On to `O=C(c1cnn(C(=O)c2cccc(S(=O)(=O)N3CCOCC3)c2)c1)c1ccccc1O`, for which the “hERG current change (%, negative = inhibition) at 10uM” value was found to be 0.84%.
With `COc1cccc(-n2c(SCC(=O)NCc3ccco3)nnc2-c2c[nH]c3ccccc23)c1`, the “hERG current change (%, negative = inhibition) at 10uM” value is listed as -37.8%.
Consider `NS(=O)(=O)c1ccc(Nc2c([N+](=O)[O-])cncc2[N+](=O)[O-])cc1`, for which the “hERG current change (%, negative = inhibition) at 10uM” value is recorded as -0.884%.
With `NC(=O)C1CCN(C(=O)Cc2ccc(-c3ccccc3)cc2)CC1`, the “hERG current change (%, negative = inhibition) at 10uM” value is 1.65%.
Take `Cc1ccc2nc(Nc3ccc4[nH]c(=O)[nH]c4c3)c(-n3nc(C)cc3C)nc2c1`: the “hERG current change (%, negative = inhibition) at 10uM” value is reported as -9.13%.
For the molecule `CN(C(=O)c1ccccc1C(=O)OCC(=O)c1ccccc1)c1ccccc1`, the “hERG current change (%, negative = inhibition) at 10uM” value was -12.9%.
In the case of `O=S(=O)(c1ccc(Cl)cc1)c1ccc(Cl)cc1` it was 13.3%; in that of `CCOC(=O)N1CCN(S(=O)(=O)N2CCCC(C(=O)NCCc3ccccc3)C2)CC1` (stereo not drawn), -14.9%; in that of `O=S(=O)(c1ccc(-n2cnnn2)cc1)N1CCN(c2ccccc2F)CC1`, -3.2%.
On to `N#CC1=C(N)SC(C(=O)c2ccccc2)C1c1cccs1` (stereo not drawn), for which the “hERG current change (%, negative = inhibition) at 10uM” value came out at 4.14%.
To `CSc1ccccc1-c1nnc(-c2ccc(Cl)c(Cl)c2)o1` belongs 14.4%; to `Cc1cccc(N2CCN(c3ccc4cc(S(=O)(=O)N5CCCCC5)ccc4n3)CC2C)c1` (stereo not drawn), 9.91%; to `Fc1ccc(CNCc2cccc(Br)c2)cc1`, 13.9%.
To `COC(=O)N=Nc1c(O)n(Cc2ccccc2)c2ccccc12` belongs -6.53%; to `COc1ccc(CCNC(=O)c2cc(C(=O)c3cc(C)ccc3O)cn(CCc3ccc(OC)cc3)c2=O)cc1`, 13.9%.
Consider `O=C(COc1ccc(F)cc1)N/N=C/c1cccc2cccnc12`, for which the “hERG current change (%, negative = inhibition) at 10uM” value turned out to be 15.6%.
In the case of `CC(NC(=O)C(=O)N1CCCCC1)C(c1cccs1)N1CCN(c2ccccc2F)CC1` (stereo not drawn) it was 1.73%; in that of `CN(C)c1oc(COc2ccccc2F)nc1C#N`, -11.7%; in that of `CN(CCO)Cc1csc2ccc(Br)cc12.Cl`, -9.69%.
In the case of `O=C(OCC(=O)N1CCc2ccccc21)c1cncc(Br)c1` it was 2.65%; in that of `COc1ccc(-c2nc3n(c(=O)c2C#N)CCS3)c(OC)c1`, -1.78%; in that of `O=C(O)CCC(=O)NNC(=O)c1ccc(Br)cc1`, 7.04%.
In the case of `COC(=O)CSc1[nH]c(=O)cc(C)c1C#N` it was 19.9%.
With `COc1cccc(-c2nc(CS(=O)(=O)CC(=O)NCCC(C)C)c(C)o2)c1`, the “hERG current change (%, negative = inhibition) at 10uM” value is -10.7%.
On to `CCOC(=O)c1cc(-c2ccccc2)nc2nc(N3CCCCC3)sc12`, for which the “hERG current change (%, negative = inhibition) at 10uM” value is 4.04%.
To `COc1cc(CC(=O)NCCc2ccc(OCc3ccccc3)cc2)c([N+](=O)[O-])cc1OC` belongs -0.949%.
In the case of `CCOc1ccc(NC(=O)c2ccc(N3CC4CC(C3)c3cccc(=O)n3C4)c(NC(=O)CCN3CCOCC3)c2)cc1` (stereo not drawn) it was -12.1%; in that of `CCOC(=O)CN1C(=O)NC2(CCCc3ccccc32)C1=O` (stereo not drawn), 12.6%; in that of `CC(=O)Nc1ccc(SC[C@H](CC(C)C)N2CCN(CCc3ccccc3)CCC2=O)cc1`, -59.1%.
In the case of `CCC1Oc2ccccc2N(CC(=O)Nc2ccc(OC)cc2OC)C1=O` (stereo not drawn) it was 13.5%.
As to `COc1ccc(Nc2c3ccccc3nc3ccccc23)cc1`, the “hERG current change (%, negative = inhibition) at 10uM” value is -69.6%.
To `O=c1[nH]c(/C=C\c2cccnc2)c([N+](=O)[O-])c(=O)[nH]1` belongs 11.7%; to `CCCCCN(C(=O)CCC(=O)OCC(=O)c1c(C)cc(C)cc1C)c1c(N)n(CCCC)c(=O)[nH]c1=O`, -28.1%; to `CC(C)CN1C(=O)c2ccc(C(=O)Nc3ccc(O)cc3C(=O)O)cc2C1=O`, 15%.
In the case of `O=C(COc1ccc2c3c(c(=O)oc2c1)CCC3)N1CCN(c2ccc(F)cc2)CC1` it was -24.2%; in that of `COc1ccc(/C=C/C(=O)Nc2nnc(C(C)C)s2)cc1OC`, 6.49%; in that of `Fc1cccc(Cl)c1Cn1ncc2ccccc21`, -7.36%.
To `C/C(=N\NC(=O)c1ccc(N(C)C)cc1)c1ccc(C)c(C)c1` belongs -14.5%; to `O=C(CCN1CCN(Cc2ccccc2)CC1)Nc1cccc(Br)c1`, -63%; to `CCCCCCNC(=O)Cc1c(O)c2ccccc2[nH]c1=O`, 3.59%.
Consider `Cc1nnc(N2C(=O)C(=O)/C(=C(/O)c3ccc4c(c3)OCCO4)C2c2ccc([N+](=O)[O-])cc2)s1` (stereo not drawn), for which the “hERG current change (%, negative = inhibition) at 10uM” value came to 19.9%.
Regarding `Cc1ccc(NC(=S)N(CCCN2CCCC2)Cc2cccn2Cc2ccc(Cl)cc2)cc1C`, the “hERG current change (%, negative = inhibition) at 10uM” value was determined as 4.72%.
As to `COC(=O)CCC(=O)N1CN2CN(C(=O)CCC(=O)OC)CC([N+](=O)[O-])(C2)C1`, the “hERG current change (%, negative = inhibition) at 10uM” value is recorded as -7.66%.
Take `CN(C)c1ccc(CNc2nc(-c3ccccc3)nn2S(C)(=O)=O)cc1`: the “hERG current change (%, negative = inhibition) at 10uM” value is on record as 9.74%.
Turning to `CC1=C(C(=O)Nc2ccccc2)C(c2ccncc2)C(C#N)=C(SCC(=O)NC(C)C)N1` (stereo not drawn), the “hERG current change (%, negative = inhibition) at 10uM” value came out at 1.55%.
To `COC(=O)CC(NC(=O)C1CC1)c1ccc2c(c1)OCO2` (stereo not drawn) belongs -5.76%; to `O=C(Nc1cccc2ccccc12)NC(Cc1ccccc1)C(=O)O` (stereo not drawn), 22.4%.
For the molecule `C=CCn1c(=O)c(C(=O)NCc2ccccc2)c(O)c2ccccc21`, the “hERG current change (%, negative = inhibition) at 10uM” value is 15.4%.
In the case of `COc1ccc(C(=O)Oc2cc(C)c(CN3CCOCC3)cc2C)cc1OC` it was -34.2%; in that of `CC1(C)CC(NC(=S)NC(=O)c2cc(Br)ccc2Cl)CC(C)(C)N1`, -53.3%.
To `CN1/C(=C\C=C2\N=C(c3ccc(F)cc3)OC2=O)C(C)(C)c2ccccc21` belongs -8.98%.
To `COc1ccc(CCNc2nnc(C)c(=O)[nH]2)cc1OC` belongs -3.67%.
In the case of `CCCCn1c(N)c(N(C(=O)CSc2nnc(C)n2-c2ccccc2)C2CCCC2)c(=O)[nH]c1=O`, the “hERG current change (%, negative = inhibition) at 10uM” value came out at 2.38%.
To `Cc1cc(C(=O)CSc2nnc(N)s2)c(C)n1C1CC1` belongs 3.28%.
